About 1,200 (2.5%) of roughly 48,000 compounds were called active. Roughly 2% stayed inconclusive and do not appear here.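 Rule for the calls: active = activation of at least 60% and not above a set upper limit (about 1 call in 100 departs from these limits); inconclusive = activation of 40% to 60%, or above that upper limit; inactive = activation under 40%.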 Some of the results follow.

From PubChem BioAssay AID1346428 (National Center for Advancing Translational Sciences (NCATS), 2018) come the findings set out here.

The experiment has as its target Probable G-protein coupled receptor 32 (Homo sapiens) (UniProt O75388). Nature of the experiment: qHTS for Agonists of Human Resolvin D1 Receptor DRV1. As to conditions: CHO-K1 GPR32 beta-arrestin PathHunter luminescence, 90 min; at 76.9 µM; stronger effect = higher value; zero percent set by DMSO-only wells. In outline: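 PathHunter enzyme-fragment complementation, CHO-K1 GPR32 stable line; 2,500 cells/well, overnight attach; cpd 90 min 37 °C 5% CO2; detection reagent 1 h RT; chemiluminescence. DMSO = EC0.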
UniProt O75388, sequence (O75388 whole entry, looked up, the tested form may be a part): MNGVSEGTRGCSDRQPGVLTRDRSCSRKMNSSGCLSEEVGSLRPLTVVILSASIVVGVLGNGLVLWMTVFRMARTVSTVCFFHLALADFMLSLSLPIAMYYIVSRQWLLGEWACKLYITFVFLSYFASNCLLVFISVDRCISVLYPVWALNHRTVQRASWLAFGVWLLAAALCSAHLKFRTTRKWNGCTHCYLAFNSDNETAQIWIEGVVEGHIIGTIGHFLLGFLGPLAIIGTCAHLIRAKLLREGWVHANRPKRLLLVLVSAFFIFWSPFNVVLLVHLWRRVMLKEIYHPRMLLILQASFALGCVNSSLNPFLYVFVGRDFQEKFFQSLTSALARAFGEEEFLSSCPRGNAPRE
Consider `CC(=O)N1c2ccccc2CC1C(=O)N1CCN(c2cccc(C)c2C)CC1` (stereo not drawn), for which the activation is active: 116%. Next, `Cc1oc2ccc(O)c(CN3CCOCC3)c2c1C(=O)Nc1ccc(C(C)C)cc1`: inactive: -9.24%; `CCc1cc(Cl)c(OC)c(C(=O)NC[C@@H]2CCCN2CC)c1O`: inactive: 8.56%; `Cc1ccc2onc(CC(=O)N3CCN(c4ccccc4F)CC3)c2c1`: inactive: -28.2%. Next, `COc1ccc(-c2cc(C)no2)cc1S(=O)(=O)N1CCN(c2ccc(C(C)=O)cc2)CC1`: inactive: -6.99%. Next, `Cc1ccc2oc(-c3cccc(NC(=O)c4cccc5c(Br)cccc45)c3)nc2c1`: inactive: 10.6%. Turning to `COc1cccc(NC(=O)CSc2nc3c([nH]c4ccccc43)c(=O)n2-c2cccc(Cl)c2)c1`, the activation was inactive: -8.21%.

`Cc1ccc(Cn2ccn(Cc3cccc(C(F)(F)F)c3)c(=O)c2=O)cc1`: the activation is inactive: -11.1%. To `C=CCOc1ccc(C2c3c(oc4ccc(C)cc4c3=O)C(=O)N2CCCN2CCOCC2)cc1` (stereo not drawn) belongs inactive: -3.17%; to `Cc1ccc(-c2ccc(=O)n(CC(=O)Nc3ccc(C(C)C)cc3)n2)cc1`, inactive: 2.49%.

Turning to `CCOC(=O)c1ccc(NC(=O)CSc2nc(C)c(Cc3ccccc3)c(=O)[nH]2)cc1`, the activation is inactive: -4.65%. Next, `CCc1cccc(CC)c1N(COC)C(=O)Cn1c(C)nc2ccccc21`: inactive: -25.3%; `CCN(CC)CCOC(=O)c1ccc(NC(=O)CSc2cc(=O)n(CC)c3ccccc23)cc1`: inactive: 14.5%. Take `Cc1ccc(-n2nc(C)c3c(C)cc(=O)n(CC(=O)NC(C)C)c32)cc1`: the activation is inactive: -4.73%. To `COCCNC(=O)CCn1c(=O)c2cc(OC)c(OC)cc2n(CC(=O)Nc2ccccc2OC)c1=O` belongs inactive: 6.14%. Next, `COc1ccccc1NC(=O)c1c(C)cc(C)nc1SCC(=O)Nc1cccc(C)c1`: inactive: -18.9%. For the compound `CCc1nn(CC(=O)Nc2ccc(C)cc2C)c(=O)c2cc3sccc3n12`, the activation is inactive: -10.9%.

Take `O=C(Nc1ccc(F)c(Cl)c1)C1Cc2ccccc2CN1S(=O)(=O)c1ccc(F)cc1` (stereo not drawn): the activation is inactive: -14.9%. To `COc1ccc(Nc2ncnc3onc(-c4ccc(Cl)cc4)c23)cc1Cl` belongs inactive: 15.4%. For `COc1cc(OC)c(NC(=O)c2cnn(-c3cccc(Cl)c3C)c2C2CCN(C(=O)OC(C)(C)C)CC2)cc1Cl`, the activation is inactive: 6.54%.

As to `COc1ccc(-n2cc(-c3ccccc3)c3c(NCc4cccc(Cl)c4)ncnc32)cc1`, the activation is inactive: -29.9%. To `O=C(NCc1ccccc1)c1ccc(NC(=O)N2CCSc3ncccc32)cc1` belongs inactive: -8.89%. Next, `Cc1ccc(NC(=O)c2cn(-c3ccccc3)nc2-c2ccccc2)cc1`: inactive: -18%; `CCCCn1c(SCC(=O)Nc2cccc(OC)c2)nc2ccsc2c1=O`: inactive: -23.7%. To `Cc1ccc(C2=NN(CC(=O)NC(C)c3ccccc3)C(=O)CC2)cc1` (stereo not drawn) belongs inactive: -17.8%.

On to `COc1ccc(-c2cn3nc(N4CCC(C(=O)NCc5ccc(F)cc5)CC4)sc3n2)cc1`, for which the activation is inactive: 0.825%.

For the compound `CC(C)c1ccc(Nc2c(-c3ccc(N4CCOCC4)cc3)nc3ncccn23)cc1`, the activation is inactive: -20.1%. To `CCOC(=O)c1c(NC(=O)COc2cccc(C)c2C)sc2c1CCCCC2` belongs inactive: 13.2%.

Regarding `Cc1ccccc1Nc1c(-c2ccccc2O)nc2sccn12`, the activation is inactive: -30.7%. As for `Cc1nn(C)c2c1c(-c1ccccc1)cc(=O)n2Cc1c(F)cccc1Cl`, the activation is inactive: -19.9%. To `O=C(c1cc(-c2ccc(Cl)cc2)on1)N(Cc1ccc(F)cc1)Cc1ccco1` belongs inactive: -7.73%; to `O=C1c2oc3ccccc3c(=O)c2C(c2cccc(O)c2)N1Cc1ccc(F)cc1` (stereo not drawn), inactive: -18.6%. Next, `CC(C)Sc1ncc(Cl)c(C(=O)Nc2c(C(=O)Nc3ccccc3)oc3ccccc23)n1`: inactive: 9.65%; `CCOc1ccc(N(CC(=O)Nc2ccc3c(c2)OCO3)S(=O)(=O)c2ccccc2)cc1`: inactive: -13.6%; `CCOC(=O)Cc1ccc(NC(=O)N2CCC(CN3CCC(C)CC3)CC2)cc1`: inactive: 4.51%. To `COc1ccc(N(C(=O)c2ccc(C)cc2)S(=O)(=O)c2ccc(Cl)cc2)cc1` belongs inactive: -9.23%; to `CCN(c1ccccc1)S(=O)(=O)c1nnc(NC(=O)C(C)Oc2ccccc2)s1` (stereo not drawn), inactive: 5.13%. Regarding `CCc1ccc(NS(=O)(=O)c2ccc3[nH]cc(C(=O)N4CCCCCC4)c(=O)c3c2)cc1`, the activation is inactive: 16%. Next, `O=C1CN(C(=O)c2ccc(S(=O)(=O)N3CCCC3)cc2)C(c2ccc(F)cc2)c2cc(F)ccc2N1` (stereo not drawn): inactive: -7.74%; `CCc1cccc(NC(=O)c2sc3nc[nH]c(=O)c3c2C)c1`: inactive: 8.38%; `COc1cc(C2C(C(=O)Nc3ccc(C)cc3C)=C(C)Nc3nc(SCc4ccccc4)nn32)cc(OC)c1OC` (stereo not drawn): inactive: 9.1%. Next, `Cc1ccc2oc3c(c(=O)c2c1)C(c1cccc(O)c1)N(CCCN1CCOCC1)C3=O` (stereo not drawn): inactive: 14.4%; `Cc1ccc(CNC(=O)c2cnn3c(C)c(Cc4c(F)cccc4Cl)c(C)nc23)cc1`: inactive: -22.8%; `Cc1cccc(-c2nnc(SCC(=O)NC3CCCCC3)o2)c1`: inactive: 0.476%. Next, `CCOc1ccc(CCNC(=O)c2ccc(C)c(-n3c(C)nc4cccnc43)c2)cc1OCC`: inactive: -13.1%.

On to `Nc1[nH]c(=O)ncc1F`, for which the activation is inactive: -0.657%.

Take `CCN(Cc1ccccc1)C(=O)c1cc2ccc3cccnc3c2[nH]1`: the activation is inactive: 8.12%. Regarding `CCOc1ccccc1NC(=O)c1cc2ccc3cccnc3c2[nH]1`, the activation was inactive: 0.957%. Next, `CCOc1ccc(C(=O)Nc2cc(-c3ccccc3)no2)cc1`: inactive: -65.6%; `Cc1cc(Br)ccc1NC(=O)CN1C(=O)c2cccnc2Sc2ccccc21`: inactive: -2.52%; `COc1ccc(C(=O)NCC(c2cccnc2)N2CCN(c3ccccc3F)CC2)cc1OC` (stereo not drawn): inactive: -2.45%. For `COC(=O)c1c(C)sc(-c2c(-c3ccc(F)cc3)[nH]c3[nH]c(=O)[nH]c(=O)c23)c1O`, the activation was inactive: -30%.

On to `CCC(=O)O[C@]1(C(=O)SCF)[C@H](C)C[C@H]2[C@@H]3C[C@H](F)C4=CC(=O)C=C[C@]4(C)[C@@]3(F)[C@@H](O)C[C@@]21C`, for which the activation is inactive: 2.08%. To `CC(C)(C)NCC(O)COc1ccccc1OCC1CCCO1` (stereo not drawn) belongs inactive: -8.75%; to `CCCc1nn2c(=O)cc(COC(=O)c3ccccc3NC(=O)C3CCCCC3)nc2s1`, inactive: -11.8%.

As for `CCC(=O)N1CCc2cc(S(=O)(=O)CCC(=O)NCc3ccccc3Cl)ccc21`, the activation was inactive: -5.19%. Next, `COc1ccc(CCNC(=O)CCc2c(C)nc3c(-c4ccc(F)cc4)c(C)nn3c2C)cc1OC`: inactive: 12.9%; `CCc1ccc(NC(=O)CN(c2ccc(C)cc2)S(=O)(=O)c2c(C)nn(C)c2C)cc1`: inactive: -14.9%; `COCCCNC(=O)N1CCN(c2nnc(C)c3c(C)n(-c4ccc(Cl)cc4)nc23)CC1`: inactive: 8.25%.

In the case of `Cc1ccc(-n2c(SCc3nc(-c4ccc(Cl)cc4)no3)nnc2-c2ccncc2)cc1`, the activation is inactive: 8.23%. On to `CC1=C(C(=O)OC2CCCCCC2)C(c2ccccc2Cl)CC(=O)N1` (stereo not drawn), for which the activation was inactive: -8.15%.

With `COc1ccc(Cn2c(C(=O)O)c(CNCCc3cccs3)c3ccc(OC)cc32)cc1`, the activation was inactive: 39%. To `CCOc1cccc(CC(=O)N2CCc3c([nH]c4ccccc34)C2c2ccc(OC)cc2)c1OCC` (stereo not drawn) belongs inactive: -28.2%; to `Cc1ccccc1CN1C(=O)c2ccccc2S(=O)c2ccc(C(=O)NCc3ccccc3)cc21` (stereo not drawn), inactive: -30.7%; to `COc1cccc(CNCCCSc2nnnn2C)c1`, inactive: -0.717%. Next, `COc1ccc(-c2c(C)nn3c(C(F)(F)F)cc(C)nc23)cc1OC`: inactive: -26.1%. With `Cc1oc2ncn(C)c(=O)c2c1C(=O)N1CCN(c2ccc(Cl)cc2)CC1`, the activation was inactive: -9.82%. Next, `Cc1ccc2c(c1)N(S(=O)(=O)c1ccc3c(c1)NC(=O)CC(=O)N3)CCO2`: inactive: -8.05%; `Cc1ccc2c(c1)N(CC(=O)NCCCN1CCCCC1C)C(=O)c1cccnc1O2` (stereo not drawn): inactive: -5.9%; `Cc1ccc(-n2c(=O)c3ccc(C(=O)NCc4ccco4)cc3n(Cc3ccc(Cl)cc3)c2=O)cc1`: inactive: -3.64%. To `Cc1ccccc1CNCCSc1nnnn1-c1ccccc1` belongs inactive: -8.34%. To `NCCCS(=O)(=O)O` belongs inactive: 3.17%. With `CCOC(=O)N1CCN(Cc2nc3cc(NC(=O)c4ccccc4OC)ccc3n2C(C)C)CC1`, the activation was inactive: -8.13%. To `COc1ccc(-n2c(=O)c3ccc(C(=O)NCc4ccc(C)cc4)cc3n(Cc3ccc(C)cc3)c2=O)cc1` belongs inactive: -6.42%. To `COc1ccc(CNC(=O)c2nc(S(=O)(=O)Cc3ccccc3)ncc2Cl)cc1` belongs inactive: -23.2%; to `COc1ccc(CNC(=O)CCc2c(C)c3cc4c(C)coc4cc3oc2=O)cc1`, active: 68%; to `Cc1ccc(-n2nc3c(=O)n(CC(=O)NCc4ccco4)nc(C)c3c2C)cc1`, inactive: -5.95%. On to `Cc1nc2nc(SCC(=O)N(Cc3ccccc3)C(C)C)nn2c(C)c1Cc1ccccc1Cl`, for which the activation is inactive: -35.8%. To `CSc1ccc(CCNc2ncnc3onc(-c4ccc(Cl)cc4)c23)cc1` belongs inactive: -11.2%; to `Cc1cc(C)c2sc(N3CCN(C(=O)C4CC4)CC3)nc2c1`, inactive: 32.6%.

Take `Cc1cc(C)c(NC(=O)Cn2c(=O)n(-c3ccc(F)cc3)c(=O)c3c(C)c(C(=O)N(C)C)sc32)c(C)c1`: the activation was inactive: -12.2%. Turning to `COc1ccc(Oc2nc3c(C)cccn3c(=O)c2/C=C(\C#N)c2nc3ccccc3[nH]2)cc1`, the activation was inactive: -24.8%. Next, `CCc1ccc2ncc3c(-c4ccc(C)cc4)nn(CC(=O)Nc4ccc(C)cc4)c3c2c1`: inactive: -4.44%.
